About 1,200 (2.5%) of roughly 48,000 compounds were called active. Roughly 2% stayed inconclusive and do not appear here.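 The calls were made as follows: active = activation of at least 60% and not above a set upper limit (about 1 call in 100 departs from these limits); inconclusive = activation of 40% to 60%, or above that upper limit; inactive = activation under 40%.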 The list shows a part of the results.

Sequence of UniProt O75388 (O75388 whole entry, looked up): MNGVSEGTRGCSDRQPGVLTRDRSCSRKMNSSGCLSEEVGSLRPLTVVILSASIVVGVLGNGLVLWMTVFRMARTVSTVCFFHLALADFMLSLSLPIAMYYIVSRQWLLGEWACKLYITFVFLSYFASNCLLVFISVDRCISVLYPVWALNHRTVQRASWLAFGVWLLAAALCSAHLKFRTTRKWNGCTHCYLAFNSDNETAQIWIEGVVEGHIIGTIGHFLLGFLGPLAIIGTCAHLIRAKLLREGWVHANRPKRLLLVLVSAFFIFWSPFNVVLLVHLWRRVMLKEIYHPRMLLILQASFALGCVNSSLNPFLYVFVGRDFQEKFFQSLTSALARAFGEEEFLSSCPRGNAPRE

This assay has as its target Probable G-protein coupled receptor 32 (Homo sapiens) (UniProt O75388). Put plainly: qHTS for Agonists of Human Resolvin D1 Receptor DRV1. Also: 0% is about no effect. As to conditions: CHO-K1 GPR32 beta-arrestin PathHunter luminescence, 90 min; at 76.9 µM; active compounds read high; zero percent set by DMSO-only wells. The gist of the method:
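Readings come from a cell-based beta-arrestin complementation format: CHO-K1 GPR32 stable cells (2,500/well) treated 90 min with compounds, then beta-Gal substrate added for 1 h before chemiluminescence imaging.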
Turning to `CCOC(=O)c1cccc(NC(=O)CSc2cc(=O)n(C)c3ccccc23)c1`, the activation was inactive: -6.19%.

Regarding `CCN(CC)CCNC(=O)c1ccc(-c2nc(CN3CCc4ccccc43)c(C)o2)cc1`, the activation is active: 97.3%.

As for `Cc1ccc(CN2c3ccccc3-c3nc(SCC(=O)NCCc4ccccc4)ncc3S2(=O)=O)cc1`, the activation is inactive: 0.0815%.

In the case of `CCOC(=O)c1ccc(Oc2nc(C)nc3c2oc2ccccc23)cc1`, the activation is inactive: -3.12%.

`Clc1ccc(CN2CCc3nc(N4CCN(c5ccccn5)CC4)ncc3C2)cc1`: the activation was inactive: 18.8%.

As for `O=C(CN1C(=O)C2(SCC(=O)N2c2cccc(F)c2)c2ccccc21)NCc1ccccc1Cl` (configuration not stated), the activation is inactive: -10.3%.

As for `Cc1nnsc1C(=O)Oc1ccc(C#N)cc1`, the activation is inactive: 19.4%.

As for `O=C(/C=C/c1ccccc1)Nc1nc2n(n1)C(c1ccc(Cl)cc1)C=C(c1ccccc1)N2` (configuration not stated), the activation was inactive: -23.8%.

Consider `CCOC(=O)c1cc(-c2ccccc2)n(CCCC(=O)Nc2cccc(C)c2)c1C`, for which the activation is inactive: -31%.

With `CCCOc1ccc(NC(=O)CC2C(=O)N(c3ccc(OC)cc3)C(=O)N2CCc2ccncc2)cc1` (configuration not stated), the activation was inactive: -19.8%.

As for `CCc1nc2ccccc2n1CCCCOc1cccc(C)c1`, the activation was inactive: 18.2%.

Take `CC(C)CC(=O)NCC(c1ccc2c(c1)OCO2)N1CCN(c2ccc(F)cc2)CC1` (configuration not stated): the activation was inactive: -26.9%.

As for `CC(C)(C)c1ccc(S(=O)(=O)c2cnc(SCC(=O)Nc3ccc4c(c3)OCCO4)[nH]c2=O)cc1`, the activation is inactive: -16.5%.

For `Cc1ccc2oc(C(=O)Nc3ccc(S(=O)(=O)N4CCCCCC4)cc3)cc(=O)c2c1`, the activation was inactive: 8.69%.

In the case of `CCOC(=O)c1cc(C)n(CC2CCC(C(=O)Nc3ccc(OC)c(OC)c3)CC2)c1C` (configuration not stated), the activation was inactive: -4.39%.

As for `CCc1ccc(NC(=O)c2sc(-n3nc(C)c(Cc4ccc5c(c4)OCO5)c3C)nc2C)cc1`, the activation is inactive: -1.19%.

Turning to `Cc1cc(C)cc(NS(=O)(=O)c2c(C)nc3scc(C)n3c2=O)c1`, the activation is inactive: 0.198%.

For `O=C(Oc1ccccc1F)c1nc(SCc2ccccc2F)ncc1Cl`, the activation is inactive: 13.6%.

As to `CCOc1ccccc1NC(=O)Cn1c(=O)n(-c2ccc(C)c(C)c2)c(=O)c2oc3ccccc3c21`, the activation was inactive: -5.48%.

Take `CC(C)Cn1cnc2c(N)nc3ccccc3c21`: the activation was inactive: 16%.

On to `COc1ccccc1NC(=O)Cn1nc2c3cc(F)ccc3n(Cc3cccc(C)c3)cc-2c1=O`, for which the activation is inactive: -6.85%.

Turning to `COc1ccc(Nc2ncc3c(n2)CCN(Cc2cccc(F)c2F)C3)c(OC)c1`, the activation was inactive: 5.67%.

`Cc1ccc2nc(-c3cccc(NC(=O)CSc4ccc(Cl)cc4)c3)oc2c1`: the activation is inactive: -24.5%.

Consider `CCN1CCC(N(Cc2ccc3c(c2)OCO3)C(=O)Nc2cccc(C)c2C)CC1`, for which the activation was inactive: -6.8%.

In the case of `CC(=O)N1CCCc2cc(S(=O)(=O)NCc3ccccc3Cl)ccc21`, the activation was inactive: -3.56%.

Take `CCc1ccc(Nc2nc3c(S(=O)(=O)c4ccc(C)cc4)nnn3c3ccsc23)cc1`: the activation is inactive: -20.6%.

For `CCN(Cc1ccccc1)C(=O)C1CCC(CNS(=O)(=O)c2ccc3c(c2)CCCC(=O)N3)CC1` (configuration not stated), the activation is inactive: -17.7%.

Take `Cc1ccc(C)c(NC(=O)c2cc(S(=O)(=O)N3CCN(c4cccc(Cl)c4)CC3)ccc2F)c1`: the activation is inactive: -19.1%.

On to `Cc1ccc(NC(=O)Cn2c(=O)n(-c3ccccc3)c(=O)c3ccc(C(=O)NCc4ccc5c(c4)OCO5)cc32)cc1`, for which the activation is inactive: -0.921%.

Regarding `CCN(C(=O)Cn1cc(S(=O)(=O)N2CCN(c3ccccc3F)CC2)c2ccccc2c1=O)c1ccc(C)c(C)c1`, the activation was inactive: -1.83%.

Turning to `Oc1c(C(c2ccccc2Cl)N2CCC(O)CC2)sc2nc(-c3ccco3)nn12` (configuration not stated), the activation was inactive: -8.22%.

Consider `O=C(Nc1ccccc1C(F)(F)F)c1noc2c1CCCC2`, for which the activation is inactive: -1.13%.

For `Cc1ccc(S(=O)(=O)c2nnn3c2nc(N2CCCC(C)C2)c2cc(Cl)ccc23)cc1C` (configuration not stated), the activation was inactive: -3.24%.

Take `COc1ccc(-c2cc(OC(=O)c3ccccc3Cl)c3c(C)oc(C)c3c(=O)c2)cc1OC`: the activation is inactive: -7.62%.

For the compound `COc1cc(OC)c(NS(=O)(=O)c2c(C)nc3sc(C)cn3c2=O)cc1Cl`, the activation is inactive: 14.7%.

With `Cc1cc(C)c(NC(=O)CSc2nc3nccnc3c(=O)n2CCc2c[nH]c3ccccc23)c(C)c1`, the activation is inactive: -2.41%.

Take `CCc1nnc(SCc2cccc(Cl)c2)c2cc3sccc3n12`: the activation was inactive: -22.2%.

On to `Cc1cc(F)ccc1NC(=O)Cn1nc(N2CCN(c3ccccc3)CC2)ccc1=O`, for which the activation was inactive: -3.74%.

For `Cc1ccc(-c2noc(-c3cccnc3NCc3ccco3)n2)cc1`, the activation is inactive: -3.66%.

As for `COc1ccc(CNC(=O)CN2C(=O)COc3ccc(S(=O)(=O)N4CCCCC4)cc32)cc1`, the activation was inactive: -25.1%.

For the compound `O=C(Cn1cc(SCc2ccc(F)cc2)c2ccccc21)N1CCCCC1`, the activation was inactive: -16.5%.

With `Cc1ccc(Cn2c(C)c3cnn(CC(=O)O)c(=O)c3c2C)cc1`, the activation is inactive: -12.9%.

In the case of `O=C(Nc1cccc(C(=O)OCc2cc(=O)n3c4c(sc3n2)CCCC4)c1)c1ccc(Cl)cc1`, the activation was inactive: -14.8%.

Turning to `COc1ccc(NC(=O)Cn2c(=O)n(CCCCCC(=O)NCc3ccc4c(c3)OCO4)c(=O)c3sccc32)cc1Cl`, the activation was inactive: -18.9%.

With `CCCSc1oc(-c2cccs2)nc1S(=O)(=O)c1ccc(C)cc1`, the activation was inactive: -20%.

On to `O=C(NCc1ccccc1)c1cnc2sc(N3CCCC3)nn2c1=O`, for which the activation is inactive: -6.92%.

Regarding `COc1ccc(C)cc1NC(=O)c1sc2nc(-c3ccc(F)cc3)cn2c1C`, the activation was inactive: -5.43%.

On to `CCN(CC)C(=O)c1sc2c(c1C)c(=O)n(Cc1ccccc1)c(=O)n2Cc1cc(C)ccc1C`, for which the activation was inactive: -13.5%.

On to `CCOc1cc(S(=O)(=O)NCCc2c(C)[nH]c3ccc(C)cc23)ccc1F`, for which the activation was inactive: 26.3%.

For `COc1ccc2c(c1)c(CC(=O)Nc1cc(C)cc(C)c1)c(C)n2C(=O)c1ccc(Cl)cc1`, the activation was inactive: -15.9%.

Regarding `Cc1cc2c(cc1S(=O)(=O)C(C)CC(=O)NC1CCC(C)CC1)OCC(=O)N2` (configuration not stated), the activation is inactive: -0.918%.

`O=C(CCCn1ncn2c(cc3occc32)c1=O)NCc1ccccc1F`: the activation was inactive: -21.7%.
